Measurements: PubChem BioAssay AID1346428 (National Center for Advancing Translational Sciences (NCATS), 2018)
In all, about 48,000 compounds went through this assay and about 1,200 (2.5%) were called active. About 2% were inconclusive and are not listed.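 The calls were made as follows: active = activation of at least 60% and not above a set upper limit (about 1 call in 100 departs from these limits); inconclusive = activation of 40% to 60%, or above that upper limit; inactive = activation under 40%.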 The list shows a part of the results.

target: Probable G-protein coupled receptor 32 (Homo sapiens) (UniProt O75388); experiment: qHTS for Agonists of Human Resolvin D1 Receptor DRV1; settings: CHO-K1 GPR32 beta-arrestin PathHunter luminescence, 90 min; at 76.9 µM; hits give high values; zero percent set by DMSO-only wells; also: 0% is about no effect
Outline: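 Engineered CHO-K1 line co-expressing GPR32-ProLink and EA-beta-arrestin. Compound treatment lasted 90 min at 37 °C. Luminescence was recorded after 1 h with substrate at ambient temperature, relative to DMSO basal wells.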

UniProt O75388, sequence (O75388 whole entry, looked up): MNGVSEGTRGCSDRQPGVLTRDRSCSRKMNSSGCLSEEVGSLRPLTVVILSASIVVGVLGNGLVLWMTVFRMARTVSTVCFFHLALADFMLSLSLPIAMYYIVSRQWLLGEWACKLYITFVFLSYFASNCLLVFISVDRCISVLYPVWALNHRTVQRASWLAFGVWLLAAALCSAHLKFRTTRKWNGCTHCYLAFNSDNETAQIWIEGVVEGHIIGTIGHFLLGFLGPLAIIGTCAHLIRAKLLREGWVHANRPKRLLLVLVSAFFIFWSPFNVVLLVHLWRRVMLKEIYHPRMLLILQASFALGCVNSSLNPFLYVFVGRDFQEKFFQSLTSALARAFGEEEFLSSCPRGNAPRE

activation, inactive:
Cc1ccc(CCNC(=O)C2CCN(Cc3nc(-c4ccccc4C)oc3C)CC2)cc1 34.9%
CCc1ccc(OCC2c3cc(OC)c(OC)cc3CCN2C(=O)COc2ccccc2)cc1 (stereo not drawn) -20.9%
CCCN(C(=O)c1coc(=O)c2ccccc12)c1ccccc1C 20.9%
Cc1ccc(N2C(=O)CSC23C(=O)N(CC(=O)Nc2ccc(C(C)C)cc2)c2ccccc23)cc1C (stereo not drawn) 21.6%
CCOc1ccc(CCNC(=O)c2cc3c(-c4ccc(OC)c(OC)c4)nn(C)c3s2)cc1OCC -2.39%
CCn1c(=O)cc(OCC(=O)Nc2cc(Cl)c(OC)cc2OC)c2ccccc21 7.81%
CCOc1ccc(NC(=O)Cn2cc(C(=O)c3ccco3)c3ccccc32)cc1 -14.6%
Cc1coc2cc3oc(=O)c(CC(=O)NCCc4ccccc4)c(C)c3cc12 -13.7%
COc1cccc(NC(=O)C(Cc2ccccc2)NS(=O)(=O)c2ccc3c(c2)oc(=O)n3C)c1 (stereo not drawn) -2.07%
COc1ccc(-n2nc(C(=O)Nc3cccc(C)n3)c3c4ccccc4n(C)c3c2=O)cc1Cl 6.33%
O=C(Nc1cccnc1Cl)c1cc(-c2cccc(Cl)c2)on1 -4.03%
CCOc1ccc(CCNC(=O)CCc2cn(Cc3ccc(F)cc3)c3ccccc23)cc1 -32.5%
COc1ccc(-c2nc(C)c(CCNC(=O)C(=O)Nc3ccccc3OC)s2)cc1 46.6%
COc1ccc(CCn2cc3c(c2-c2ccc(Br)cc2)c(=O)n(C)c(=O)n3C)cc1OC -43.1%
Cc1ccc(C(C)C)c(OCC(=O)NCC2(N(C)C)CCCCC2)c1 10.8%
Cc1ccccc1C(=O)n1nc(-c2ccco2)nc1NCc1ccc(Cl)cc1 7.84%
Cc1ccccc1N1CC(c2nc3ccccc3n2CCC2CCCCC2)CC1=O (stereo not drawn) -24.4%
COc1ccc(CNC(=O)CCn2cccn2)cc1 22%
Cc1ccc(C)c(N2CCN(C(=O)C3CCCN(S(=O)(=O)c4ccc5c(c4)oc(=O)n5C)C3)CC2)c1 (stereo not drawn) 18.5%
CCOc1cc(OCC)c(C(=O)CCC(=O)O)cc1OCC 40.6%
O=C(COc1ccc(Cl)cc1)Nc1ccc(-c2nc3ccccc3s2)c(O)c1 -6.3%
Cc1ccc(-c2nnc(SCc3ccccc3C)o2)cc1 10.1%
CCc1ccccc1NC(=O)c1c(NC(=O)c2ccccc2)sc2c1CCCC2 -0.352%
CCc1ccc(C(=O)c2cn(CC(=O)Nc3ccc4c(c3)OCO4)c3cc(OC)c(OC)cc3c2=O)cc1 39.7%
CCOC(=O)C1CCC(CN(Cc2cccc(Br)c2)S(=O)(=O)c2ccc(C)cc2)CC1 (stereo not drawn) -7.22%
COc1ccc(S(=O)(=O)Nc2ccc3c(c2)N(C(C)=O)CCC3)cc1F -5.67%
COc1cc(Cl)c(NC(=O)CCS(=O)(=O)c2cc3c(cc2Cl)NC(=O)CO3)c(OC)c1 39.3%
COc1cc(-c2cc(OC)c3c(C)oc(C)c3c(=O)c2)ccc1OC(=O)c1ccccc1Cl -23.3%
COc1ccc(OC)c2sc(N3CCN(C(=O)C(C)(C)C)CC3)nc12 9.03%
CCOC(=O)C1=C(CN2CCC(C)CC2)NC(=O)NC1c1ccc(F)cc1 (stereo not drawn) -6.71%
Cc1cccc(Oc2nc3c(C)cccn3c(=O)c2/C=C(\C#N)c2nc3ccccc3[nH]2)c1 21.1%
Cc1ccc2nc(N3CCN(c4cccc(Cl)c4)CC3)c(-n3nc(C)cc3C)nc2c1 -19.6%
Cc1ccc(-c2cc3ncc4c(n3n2)-c2cc(C)ccc2OC4)cc1 -7.43%
Cc1cc(C)c2c(=O)cc(CSCC(=O)Nc3ccccc3Cl)[nH]c2c1 31.9%
COc1ccc(CNC(=O)c2ccc(N3CCCC3)c(NC(=O)NCc3ccc(F)cc3)c2)cc1 -17%
COCCCNC(=O)c1ccc(NC(=O)c2nsc3ccccc23)cc1 -7.56%
COc1ccccc1CNC(=O)C1CCC(CNS(=O)(=O)c2ccc3c(c2)CCCC(=O)N3)CC1 (stereo not drawn) -15.2%
Cc1ccc(N2C(=O)CSC23C(=O)N(CC(=O)NCc2ccccc2)c2ccccc23)cc1C (stereo not drawn) -18.6%
Cc1cccc(C)c1OCC(=O)NCC1(N(C)C)CCCCC1 -14.8%
CNC(=O)c1c(NC(=O)c2ccc(S(=O)(=O)N3CCC(C)CC3)cc2)sc2c1CCC2 -18.5%
CS(=O)(=O)c1ccc(-c2nnc(NC(=O)c3ccc4c(c3)OCCO4)o2)cc1 -39.2%
COc1ccc(CNS(=O)(=O)c2cnc(N)nc2)c(OC)c1 -3.26%
CCN(CC)CCNC(=O)c1ccc(Cn2c(SCc3ccccc3)nc3cccnc32)cc1 -4.5%
Cc1ccc2c(Sc3ccc(Cl)cc3)c(C(=O)N3CCC(C)CC3)[nH]c2c1 -30.7%
CCC1CN(C(=O)N2CCC(C(=O)NCCN(CC)CC)CC2)c2cc(C)ccc2O1 (stereo not drawn) -18.2%
CC(=O)c1ccc(NC(=O)Cn2cc(S(=O)(=O)Cc3cccc(Cl)c3)c3ccccc32)cc1 -10.9%
CCOc1cc(CNC(=O)c2sc3ncnc(N(C)C4CCCCC4)c3c2C)ccc1OC -8.54%
O=C(CCc1nc(-c2cccs2)no1)Nc1cccc([N+](=O)[O-])c1 19.6%
COc1ccc(CCCc2nnc(SCC(=O)Nc3ccc(C)cc3)o2)cc1 35.6%
CCOc1ccc(-c2ccc(NS(=O)(=O)c3ccc(C)cc3)cc2)nn1 5.15%
Cc1cccn2c(=O)c(/C=C(\C#N)c3nc4ccccc4[nH]3)c(Oc3ccc(C(C)(C)C)cc3)nc12 10.9%
Cc1ccc(C)c(N2CCN(C(c3ccccc3)c3nnc(-c4ccccc4F)o3)CC2)c1 (stereo not drawn) -27.7%
Cc1ccc(C(=O)Nc2sc3c(c2C(=O)NCc2ccco2)CCC(C(C)(C)C)C3)cc1 (stereo not drawn) 6.57%
